# Earlier results, collected in patent US8889153B2, “Combination of immunomodulator and anti-pathogenic agent” (priority 2008, dated 2014).
# Tested on: Punta Toro virus - Adames strain
# Conditions: cited from earlier work
structure (smiles),measurement,setting,value
"NC(=O)c1ncn([C@@H]2O[C@H](CO)[C@@H](O)[C@H]2O)n1 [Ribavirin, 1-(β-D-Ribofuranosyl)-1H-1,2,4-triazol-3-carboxamide]","minimum effective dosage reported in literature, PTV infection",Antimicrob Agents Chemother 32:331-336,4.7 mg/kg
same,effect against PTV infection in low dosages,"less than […], Sidwell et al. 1988",ineffective
